Laboratory results: paper PMC11995724, “Antibiotic target discovery by integrated phenotypic and activity-based profiling of electrophilic fragments” (Cell chemical biology, 2025)
Out of some 3,200 compounds screened, about 110 (3.4%) showed an effect of 50% or more. The list shows a part of the results.

tested on: T1, V. cholerae SAD30; parameters: species or system S. aureus MSSA476 (TSB) or V. cholerae SAD30 (LB); 384-well bacterial growth screen at 25 uM, OD600 relative to DMSO control; conditions: relative growth, OD600, LB; 25 µM; inhibitor
T1 construct: SAD30

Structure (SMILES)	% of control remaining [%]
CC(O)CN(Cc1ccc(Cl)c(F)c1)C(=O)CCl (centres unmarked) [5-K12, 2-chloro-N-[(4-chloro-3-fluorophenyl)methyl]-N-(2-hydroxypropyl)acetamide]	90.2806
COc1ccc(NC(=O)C(C#N)=Cc2c(C)n[nH]c2C)cc1 [8-I04, 2-cyano-3-(3,5-dimethyl-1H-pyrazol-4-yl)-N-(4-methoxyphenyl)prop-2-enamide]	78.518
C=CCNC(=O)C(C#N)=Cc1ccc2c(c1)OCCO2 [9-L06, 2-cyano-3-(2,3-dihydro-1,4-benzodioxin-6-yl)-N-(prop-2-en-1-yl)prop-2-enamide]	87.4915
Cc1ccc2nc(-c3ccc(F)cc3)c(CNC(=O)C(C)Cl)n2c1 (centres unmarked) [5-D21, 2-chloro-N-{[2-(4-fluorophenyl)-6-methylimidazo[1,2-a]pyridin-3-yl]methyl}propanamide]	81.7064
COc1ccccc1NC(=O)C(C#N)=Cc1cc(C)c(C)cc1C [9-A10, 2-cyano-N-(2-methoxyphenyl)-3-(2,4,5-trimethylphenyl)prop-2-enamide]	89.259
CC(NC(=O)C(C#N)=Cc1ccc2c(c1)OCCO2)c1ccccc1 (centres unmarked) [8-M15, 2-cyano-3-(2,3-dihydro-1,4-benzodioxin-6-yl)-N-(1-phenylethyl)prop-2-enamide]	73.0795
N#CC(=Cc1ccccc1)C(=O)Nc1ccccc1-c1ccccc1 [8-A15, N-{[1,1'-biphenyl]-2-yl}-2-cyano-3-phenylprop-2-enamide]	83.0048
CCc1ccccc1NC(=O)CNC(=O)CCl [4-I08, 2-chloro-N-{[(2-ethylphenyl)carbamoyl]methyl}acetamide]	103.515
CCCc1ccc(NC(=O)CCl)cc1 [6-I22, 2-chloro-N-(4-propylphenyl)acetamide]	109.053
C=CC(=O)NCC1CCN(c2ccccc2)C1 (centres unmarked) [3-B17, N-[(1-phenylpyrrolidin-3-yl)methyl]prop-2-enamide]	107.44
CCOc1cccc(N2CCN(C(=O)C(C)Cl)CC2)n1 (centres unmarked) [7-G07, 2-chloro-1-[4-(6-ethoxypyridin-2-yl)piperazin-1-yl]propan-1-one]	71.5017
C=CC(=O)N1CCC(C(=O)NCc2ccc(C(N)=O)cc2)CC1 [3-J08, N-[(4-carbamoylphenyl)methyl]-1-(prop-2-enoyl)piperidine-4-carboxamide]	94.5598
Cc1ccc(NC(=O)C(C#N)=Cc2cccc(F)c2)cc1 [8-F11, 2-cyano-3-(3-fluorophenyl)-N-(4-methylphenyl)prop-2-enamide]	65.0578
Cc1cccc(CN(C(=O)CCl)C(C)C)c1 [6-J05, 2-chloro-N-[(3-methylphenyl)methyl]-N-(propan-2-yl)acetamide]	95.5541
O=C(CCl)NS(=O)(=O)c1ccc(Cl)cc1 [4-E18, 2-chloro-N-(4-chlorobenzenesulfonyl)acetamide]	99.8922
Cc1ccc(N2CCN(C(=O)C(C)Cl)CC2=O)o1 (centres unmarked) [7-A16, 4-(2-chloropropanoyl)-1-(5-methylfuran-2-yl)piperazin-2-one]	80.0925
CC(c1ccccc1F)N1CCCC(NC(=O)CCl)C1=O (centres unmarked) [5-I10, 2-chloro-N-{1-[1-(2-fluorophenyl)ethyl]-2-oxopiperidin-3-yl}acetamide]	94.4836
C=CC(=O)NCc1ccc(C(C)(C)C)[nH]c1=O [3-P08, N-[(6-tert-butyl-2-oxo-1,2-dihydropyridin-3-yl)methyl]prop-2-enamide]	110.969
Cl.O=C(CCl)NC1CCN(c2ccncc2)CC1 [5-P09, 2-chloro-N-[1-(pyridin-4-yl)piperidin-4-yl]acetamide hydrochloride]	108.101
CC(NC(=O)CCl)c1cc(C(F)(F)F)[nH]n1 (centres unmarked) [5-P11, 2-chloro-N-{1-[5-(trifluoromethyl)-1H-pyrazol-3-yl]ethyl}acetamide]	106.252
CCC(NC(=O)CCl)c1nc(C)n[nH]1 (centres unmarked) [5-O14, 2-chloro-N-[1-(3-methyl-1H-1,2,4-triazol-5-yl)propyl]acetamide]	95.8285
Cc1cc(C(=O)CCl)c(C)n1-c1ccccn1 [10-C16, 2-chloro-1-[2,5-dimethyl-1-(pyridin-2-yl)-1H-pyrrol-3-yl]ethan-1-one]	41.1455
O=C(CCl)NCCc1cccc2c1Oc1ccccc1O2 [7-J18, 2-chloro-N-[2-(oxanthren-1-yl)ethyl]acetamide]	77.317
C=CC(=O)N1CCC(C(=O)Nc2ccc(N(C)C(C)=O)cc2)CC1 [2-D08, N-[4-(N-methylacetamido)phenyl]-1-(prop-2-enoyl)piperidine-4-carboxamide]	90.1959
CCC(=O)N1CCc2cc(C(=O)CCl)ccc21 [10-C22, 1-[5-(2-chloroacetyl)-2,3-dihydro-1H-indol-1-yl]propan-1-one]	119.54
Cc1ccc(C=C(C#N)C(=O)Nc2nccs2)s1 [8-P13, 2-cyano-3-(5-methylthiophen-2-yl)-N-(1,3-thiazol-2-yl)prop-2-enamide]	76.0707
CC(=O)Nc1ccc(NC(=O)N2CCSSCC2)cc1 [10-J11, N-(4-acetamidophenyl)-1,2,5-dithiazepane-5-carboxamide]	93.6684
CC(Cl)C(=O)N1CCN(Cc2cc(=O)n3ccsc3n2)CC1 (centres unmarked) [6-P17, 7-{[4-(2-chloropropanoyl)piperazin-1-yl]methyl}-5H-[1,3]thiazolo[3,2-a]pyrimidin-5-one]	97.5258
Cc1cc(NC(=O)CCl)c([N+](=O)[O-])cc1C [4-F21, 2-chloro-N-(4,5-dimethyl-2-nitrophenyl)acetamide]	103.515
